Laboratory results: article PMC4336329 (PLoS ONE, 2015)
About 2,200 (0.71%) of roughly 310,000 compounds showed an effect of 50% or more. Effects have a minus sign here. The list shows a part of the results.

target: human ether-à-go-go-related gene (hERG) potassium channel (human, UniProt Q12809); experiment: primary screen, population patch clamp on CHO cells stably expressing hERG
Sequence (Q12809 whole entry, looked up): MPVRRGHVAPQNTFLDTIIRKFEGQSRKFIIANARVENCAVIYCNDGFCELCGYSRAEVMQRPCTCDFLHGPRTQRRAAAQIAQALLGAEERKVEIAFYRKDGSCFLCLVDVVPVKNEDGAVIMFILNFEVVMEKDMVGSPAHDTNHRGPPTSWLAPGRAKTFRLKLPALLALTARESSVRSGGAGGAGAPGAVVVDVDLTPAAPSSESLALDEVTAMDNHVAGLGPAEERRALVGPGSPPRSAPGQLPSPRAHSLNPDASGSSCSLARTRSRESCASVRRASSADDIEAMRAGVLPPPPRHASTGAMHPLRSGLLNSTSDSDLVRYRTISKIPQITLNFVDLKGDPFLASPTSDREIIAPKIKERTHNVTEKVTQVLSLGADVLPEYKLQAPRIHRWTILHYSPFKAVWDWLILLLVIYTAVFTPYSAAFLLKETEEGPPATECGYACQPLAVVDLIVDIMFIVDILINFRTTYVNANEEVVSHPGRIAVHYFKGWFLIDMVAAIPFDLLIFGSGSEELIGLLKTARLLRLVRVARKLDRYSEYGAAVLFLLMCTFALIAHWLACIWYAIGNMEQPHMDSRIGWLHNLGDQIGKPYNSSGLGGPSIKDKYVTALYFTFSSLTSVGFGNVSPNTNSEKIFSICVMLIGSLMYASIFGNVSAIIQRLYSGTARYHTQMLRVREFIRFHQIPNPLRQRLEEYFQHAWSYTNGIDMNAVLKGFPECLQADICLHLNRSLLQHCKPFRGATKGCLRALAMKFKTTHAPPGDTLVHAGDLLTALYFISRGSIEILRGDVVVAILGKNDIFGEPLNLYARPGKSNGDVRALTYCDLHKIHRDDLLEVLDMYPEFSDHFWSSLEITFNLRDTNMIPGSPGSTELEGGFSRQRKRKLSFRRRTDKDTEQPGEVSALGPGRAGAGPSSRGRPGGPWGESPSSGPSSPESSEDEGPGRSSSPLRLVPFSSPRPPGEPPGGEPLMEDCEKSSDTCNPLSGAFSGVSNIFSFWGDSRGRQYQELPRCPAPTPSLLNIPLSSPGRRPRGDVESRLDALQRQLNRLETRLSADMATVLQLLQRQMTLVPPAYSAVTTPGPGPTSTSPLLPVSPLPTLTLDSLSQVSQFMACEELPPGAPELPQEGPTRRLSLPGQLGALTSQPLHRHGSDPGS

Row | Structure (SMILES) | hERG current change (%, negative = inhibition) at 1uM [%]
1 | c1ccc(CNCCN2CCNCC2)nc1 | 8.67
2 | COc1cccc(C2Nc3ccccc3C(=O)N2c2ccc(F)cc2)c1O (stereo not drawn) | 9.45
3 | COc1ccc(C(=O)N/N=C(\C)CC(=O)NC2CCCCC2)c(OC)c1 | 4.88
4 | COc1ccc(C2/C=C\CN(S(=O)(=O)c3cccc4cccnc34)CC(=O)N2Cc2ccc(F)cc2)cc1 (stereo not drawn) | 11.4
5 | COc1ccc(/C=C/C(=O)NCCCNC(=O)/C=C/c2ccc(OC)c(OC)c2)cc1OC | -1.09
6 | O=C(COc1coc(CN2CCc3ccccc3C2)cc1=O)Nc1cccc(Cl)c1 | 10.6
7 | CC1CCN(C(=O)C2CCN(S(=O)(=O)c3cccc4nonc34)CC2)CC1 | -6.88
8 | CCOc1ccc2[nH]c(C(=O)N/N=C/c3cccc(OC)c3OC)cc2c1 | 7.16
9 | O=C(c1cccs1)c1cn(CC(=O)N2CCc3ccccc3C2)c2ccccc12 | 8.36
10 | O=C(Oc1ccc(Cl)cc1)N1CCCCC1 | 3.2
11 | O=C(Nc1ccc(Br)cc1)c1ccc(CSC2=NCCS2)cc1 | 7.38
12 | CN(Cc1ccccc1)c1ccc(C(CC(N)=O)NC(=O)Cc2cccc3ccccc23)cc1[N+](=O)[O-] (stereo not drawn) | -5.26
13 | Cc1sc(NC(=O)c2ccco2)c(C(c2cccnc2)N2CCC(C)CC2)c1C (stereo not drawn) | 11.6
14 | O=C(O)c1cc(-c2cc(C(=O)O)c3ccccc3n2)nc2ccccc12 | 12.2
15 | COc1ccc(CCNC(=O)CCN2C(=O)C(C)Oc3ccc(C)cc32)cc1OC (stereo not drawn) | 5.74
16 | COc1cccc(NC(=S)N(CCN(C)C)C(C)c2ccncc2)c1 (stereo not drawn) | -9.71
17 | CC(C)OC(=O)CCNc1n[nH]c(=O)[nH]c1=O | 4.38
18 | O=C(Sc1nnnn1C1CCCCC1)c1cccs1 | 2.01
19 | Cc1ccc(NC(=S)NCCN(C2CCCCC2)C2CCCC2)cc1C | -2.62
20 | O=C(COC(=O)c1ccc(S(=O)(=O)Nc2ccccc2)cc1)NCCC1=CCCCC1 | 13
21 | Cc1ccc(SCc2cc(=O)[nH]c(/N=C(\N)Nc3cccc4ccccc34)n2)cc1 | 11.4
22 | Cc1ccc2c(c1)C(c1ccccc1)N(C(=O)c1ccc3c(c1)OCO3)CC(=O)N2 (stereo not drawn) | -8.28
23 | COc1ccc(OC)c(N2C(N)=NC(N)=NC23CCCC3)c1.Cl | 21.9
24 | Cn1nnnc1SCCNC(=O)C1CCC(=O)N(CCc2cccc(F)c2)C1 (stereo not drawn) | 13
25 | Cn1ccc(C(=O)OCC(=O)Nc2cccc(Cl)c2)n1 | 5.92
26 | Cc1nc2ncnn2c(C)c1CCC(=O)N1CCOCC1 | 0.233
27 | CCOc1ccccc1C(=O)Nc1cccc(-c2ccc3nncn3n2)c1 | -2.73

Row | Structure (SMILES) | hERG current change (%, negative = inhibition) at 1uM [%]
28 | Cc1nn(-c2ccccc2)c2[nH]c(=O)c(CNCc3ccc4c(c3)OCO4)cc12 | -7.2
29 | O=C(Cc1ccc([N+](=O)[O-])cc1)NCc1ccccc1Cl | 7.97
30 | Cc1ccc(NC(=O)CSc2nnc3ccc(-c4cccnc4)nn23)cc1 | -6.78
31 | CC(C)(C)OC(=O)NCCCC[C@H](NC(=O)c1nc[nH]c1C(=O)N1CCN(C(=O)OC(C)(C)C)CC1)C(=O)OC(C)(C)C | 12.1
32 | COc1ccc(S(=O)(=O)N(CC(=O)NCC2CCCO2)Cc2ccccc2)cc1C (stereo not drawn) | -3.83
33 | CC(C)(C)c1ccc(OCCNC(=S)NC(=O)c2cccnc2)cc1 | 1.55
34 | CCCN1CCN(c2ncnc3scc(C4COc5ccccc5O4)c23)CC1 (stereo not drawn) | -3.01
35 | Oc1oc(-c2ccccc2)nc1C=Nc1ccccc1 | 4.36
36 | O=C(Nc1ccc(F)cc1)c1cccc(NC(=O)C2C3CC4OC(=O)C2C4C3)c1 (stereo not drawn) | 16.4
37 | COc1ccc(Br)cc1C(=O)N/N=C/c1ccc2c(c1)n(C)c(=O)n2C | 11.8
38 | CCOC(=O)c1sc(NC(=O)COC(=O)CNC(=O)c2ccco2)c(C(=O)OCC)c1C | 17
39 | COc1ccc(CC(=O)Nc2ccc(S(=O)(=O)Nc3cc(OC)nc(OC)n3)cc2)cc1 | 11.6
40 | O=C(CCNC(=O)C1CCN(S(=O)(=O)c2ccc(F)cc2)CC1)NCc1ccc(F)cc1 | 8.89
41 | COC(=O)CSc1nnc(SCc2ccc(OC)cc2)s1 | 12.6
42 | COc1cc(/C=C/C(=O)c2c(O)cc(C)oc2=O)cc(OC)c1O | 18.8
43 | CCSc1nnc(NC(=O)NC(CC)(C(F)(F)F)C(F)(F)F)s1 | 15.4
44 | Cc1csc(SC(C)C(=O)NCC2CCCO2)n1 (stereo not drawn) | -4.59
45 | CC(C)C[C@H](NC(=O)NCCC1=CCCCC1)C(=O)O | -1.27
46 | O=C(Nc1cc(Cl)ccc1O)C1CC(c2c(F)cccc2Cl)=NO1 (stereo not drawn) | 16.6
47 | Cn1c2c(c(=O)n(C)c1=O)C(c1ccccc1OC(F)F)C1=C(CCCC1=O)N2 (stereo not drawn) | 2
48 | CCN(CC)CCOC(=O)c1ccc(NC(=O)c2ccc(Cl)c(S(=O)(=O)N3CCCCCC3)c2)cc1.Cl | 13.5
49 | COc1ccc2[nH]c(=O)c(CN(C(=O)NC3CCCCC3)C3CCCC3)cc2c1 | -6.77
50 | CCn1nc(C(=O)NNC(=O)c2ccccc2)c2ccccc2c1=O | 6.09
51 | O=C(COc1ccc2ccccc2c1)NCC(=O)N/N=C/c1ccco1 | -4.96
52 | COc1ccc(/C=N/N=C2/NC(=O)C(CC(=O)O)S2)cc1OS(=O)(=O)c1ccccc1 (stereo not drawn) | 12
53 | O=c1c2ccccc2nc(-c2ccccc2)n1Cc1ccco1 | 5.8
54 | O=C(NCc1ccc2c(c1)OCO2)c1nn2cccnc2c1Cl | 1.79
